{"source": "PubChem BioAssay (Tox21)", "note": "Values joined by “and” are separate entries in the source; they are usually repeats but may differ in a detail not shown here. Equal values may be shown once. Inconclusive results, whose numbers are uncertain, are shown with a selection of clear calls. A potency beside an inconclusive call is a rough fit, not a confirmed value. Active and inactive are the calls of the source. Calls follow the shape of the dose curve; as a rule, active = well fitted inhibition curve with a large enough effect in the repeat runs; inconclusive = weak or mixed curves; inactive = no such curve, though single readings can be large or run the other way. Also: nearly all actives have a fitted effect of over 50% in size. Potency is read from the fitted curve at half-maximal effect; tags tell the direction and shape of the fitted curve."}
{"target": "Cytochrome P450 1A2 (Homo sapiens) (UniProt P05177)", "sequence (P05177 whole entry, looked up)": "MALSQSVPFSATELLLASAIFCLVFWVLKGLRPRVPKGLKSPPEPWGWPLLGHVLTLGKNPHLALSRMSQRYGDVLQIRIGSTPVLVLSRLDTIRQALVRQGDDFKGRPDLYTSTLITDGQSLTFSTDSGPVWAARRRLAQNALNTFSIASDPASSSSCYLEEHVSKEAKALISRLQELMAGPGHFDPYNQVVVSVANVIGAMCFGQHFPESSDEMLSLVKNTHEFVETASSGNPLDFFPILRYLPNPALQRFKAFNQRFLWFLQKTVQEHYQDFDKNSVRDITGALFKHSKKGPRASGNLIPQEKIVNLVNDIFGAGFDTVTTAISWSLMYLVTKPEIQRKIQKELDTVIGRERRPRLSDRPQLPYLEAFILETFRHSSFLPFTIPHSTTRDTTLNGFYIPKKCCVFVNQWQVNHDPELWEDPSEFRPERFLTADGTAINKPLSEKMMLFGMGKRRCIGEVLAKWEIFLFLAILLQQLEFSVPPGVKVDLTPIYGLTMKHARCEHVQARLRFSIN", "assay": "Cytochrome P450 Family 1 Subfamily A Member 2 (CYP1A2) small molecule antagonists: luciferase reporter qHTS assay (AID 1671199)", "conditions": "P450-Glo CYP1A2 enzyme, luciferin luminescence, 1 h; series mostly up to 115 µM", "summary_of_the_method": "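Compounds were incubated with CYP1A2 and a luminogenic proluciferin substrate for 10 min at room temperature before the reaction was started with NADPH regeneration solution. After 1 h, detection reagent was added and light output, proportional to CYP activity, was recorded.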"}
{"compound": "C=C(C)CC(C)(C)C", "Potency": "inconclusive: 61.3 µM [inhibitor, partial curve]"}
{"compound": "Cc1ccc(N/N=c2\\c(=O)cc/c(=N\\Nc3ccc(S(=O)(=O)O)cc3)c2=O)c(C)c1", "Potency": "inconclusive: 35.6 µM [inhibitor, partial curve]"}
{"compound": "CCOC(=O)c1ccc(OCCN2C[C@H](O)[C@@H](O)[C@H](O)[C@H]2CO)cc1", "Potency": "inconclusive: 32.3 µM [inhibitor, partial curve]"}
{"compound": "Cc1c(C2(c3cc(Br)c(O)c(Br)c3C)OS(=O)(=O)c3ccccc32)cc(Br)c(O)c1Br", "Potency": "active: 13.7 µM"}
{"compound": "N#CCCN(CCO)CCO", "Potency": "inactive"}
{"compound": "CC(=O)CCC(C)C", "Potency": "inconclusive: 61.2 µM [inhibitor] and inconclusive: 71 µM [inhibitor, partial curve]"}
{"compound": "CC(N)=O", "Potency": "inconclusive: 167 µM [inhibitor, partial curve]"}
{"compound": "CCC(N)(CO)CO", "Potency": "inconclusive: 63.9 µM [inhibitor, partial curve]"}
{"compound": "O=C1Cc2cc(Cl)ccc2N1", "Potency": "active: 11 µM"}
{"compound": "C=C(C)C(=O)OCC(CC)(COC(=O)C(=C)C)COC(=O)C(=C)C", "Potency": "active: 32.2 µM and active: 27.8 µM"}
{"compound": "CCC(C)(C)OC", "Potency": "inconclusive: 39.8 µM [inhibitor, partial curve]"}
{"compound": "O=[N+]([O-])c1ccc(Nc2ccc(Nc3ccccc3)c(S(=O)(=O)O)c2)c([N+](=O)[O-])c1", "Potency": "inactive"}
{"compound": "O=C(Nc1ccc(Cl)c(Cl)c1)c1cc(Cl)cc(Cl)c1O", "Potency": "active: 20 µM"}
{"compound": "Cc1cc(C)nc(NS(=O)(=O)c2ccc(N)cc2)n1", "Potency": "inactive"}
{"compound": "Cc1c(C)c2c(c(C)c1OC(=O)CCC(=O)O)CC[C@@](C)(CCC[C@H](C)CCC[C@H](C)CCCC(C)C)O2", "Potency": "inconclusive: 64 µM [inhibitor, partial curve]"}
{"compound": "CCc1cccc(O)c1", "Potency": "inconclusive: 40.8 µM [inhibitor, partial curve] and inconclusive: 41.1 µM [inhibitor, partial curve]"}
{"target": "Cytochrome P450 3A4 (Homo sapiens) (UniProt P08684)", "sequence (P08684 whole entry, looked up)": "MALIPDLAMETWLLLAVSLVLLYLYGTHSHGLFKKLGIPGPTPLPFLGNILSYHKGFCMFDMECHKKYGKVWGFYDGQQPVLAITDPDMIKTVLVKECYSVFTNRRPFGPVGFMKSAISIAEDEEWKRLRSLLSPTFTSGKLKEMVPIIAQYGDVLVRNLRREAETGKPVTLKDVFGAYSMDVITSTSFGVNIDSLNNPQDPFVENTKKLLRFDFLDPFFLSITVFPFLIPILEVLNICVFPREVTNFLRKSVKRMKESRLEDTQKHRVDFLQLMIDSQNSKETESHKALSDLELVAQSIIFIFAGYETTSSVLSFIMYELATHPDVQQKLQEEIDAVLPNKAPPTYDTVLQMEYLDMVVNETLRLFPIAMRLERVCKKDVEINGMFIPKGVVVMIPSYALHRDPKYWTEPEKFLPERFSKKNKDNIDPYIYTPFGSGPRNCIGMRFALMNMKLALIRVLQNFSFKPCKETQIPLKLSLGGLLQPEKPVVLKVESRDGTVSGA", "assay": "Cytochrome P450 Family 3 Subfamily A Member 4 (CYP3A4) small molecule antagonists: luciferase reporter qHTS assay (AID 1671201)", "conditions": "P450-Glo CYP3A4 enzyme, luciferin luminescence, 1 h; series mostly up to 115 µM", "summary_of_the_method": "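P450-Glo CYP3A4 luminescent assay: compounds preincubated 10 min at room temperature with enzyme and proluciferin substrate, NADPH regeneration added, 1 h room-temperature reaction, stopped with luciferin detection reagent; luminescence read after 20 min. Ketoconazole positive control.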"}
{"compound": "CC/C=C1/OC(=O)c2ccccc21", "Potency": "inactive"}
{"compound": "Cc1cc(O)ccc1O", "Potency": "inconclusive: 90.4 µM [inhibitor, single point]"}
{"compound": "O=C(Nc1ccc2c(O)c(N=Nc3ccc(N=Nc4ccc(S(=O)(=O)O)cc4)cc3)c(S(=O)(=O)O)cc2c1)c1ccccc1", "Potency": "inconclusive: 63.3 µM [inhibitor, partial curve]"}
{"compound": "CCC(=O)C1CC(C(C)C)CC=C1C", "note": "(centres undefined)", "Potency": "active: 39.9 µM"}
{"compound": "C=C(C)C(=O)OCC(CC)(COC(=O)C(=C)C)COC(=O)C(=C)C", "Potency": "inconclusive: 32.2 µM [inhibitor, full curve]"}
{"compound": "COc1ccc2sc(C(=O)Nc3nnn[nH]3)c(OC(C)C)c2c1", "Potency": "inconclusive: 35.5 µM [inhibitor, partial curve]"}
{"compound": "O=[Se](O)O", "Potency": "inconclusive: 15.3 µM [inhibitor, partial curve]"}
{"compound": "CC(=O)Nc1cc(S(=O)(=O)O)cc2cc(S(=O)(=O)O)c(N=Nc3ccccc3)c(O)c12", "Potency": "inconclusive: 22.4 µM [inhibitor, partial curve]"}
